# In a collection of fitness landscapes (doi:10.1016/j.celrep.2020.107928):
# In all, about 81,000 sequences were measured (“one-hybrid fitness for binding parS DNA”: median about -0.17, highest 2% from about 0.51 on). Some of the results follow.
# B1: Caulobacter ParB omega fusion; a variant is named by its letters at X, in order, B8GW30 (parent)
# chain: MESVVVGEPGMSEGRRGLGRGLSALLGEVDAAPAQAPGEQLGGSREAPIEILQRNPDQPRRTFREEDLEDLSNSIREKGVLQPILVRPSPDTAGEYQIVAGERAWRAAQRAGLKTVPIMVRELDDLAVLEIGIIENVQRADLNVLEEALSYKVLMEKFERTQENIAQTIGKSXSHVANXMRLLXLPDEVQSYLVSGELTAXHARAIAAAADPVALAKQIIEGGLSVRETEALARKAPNLSAGKSKGGRPPRVKDTDTQALESDLSSVLGLDVSIDHRGSTGTLTITYATLEQLDDLCNRLTRGI
# Variants of: B1
# Assay: one-hybrid fitness for binding parS DNA (scaled: cognate 1, non-cognate 0); higher = stronger binding
# Settings: with parS DNA site
# How it was run: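 The reporter was HIS3, with the binding site 19 bp from the promoter, in E. coli USO used for bacterial one-hybrid selection of Caulobacter ParB libraries with four specificity codons randomised. Growth was on M9 lacking histidine, with 0.1 mM IPTG and 5 mM 3-AT, for 48 hours at 37°C. Illumina sequencing covered plasmids before and after selection; three replicate libraries were pooled and variants with under 10 reads dropped. A fitness score is the log change in variant-to-wild-type read ratio, rescaled to the cognate and non-cognate references.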
row,Variant,one-hybrid fitness for binding parS DNA
1,ILWW,≤ 0.2
2,QWLA,≤ 0.2
3,PASI,≤ 0.2
4,AFQG,≤ 0.2
5,DGHT,≤ 0.2
6,WNVG,≤ 0.2
7,PDQL,≤ 0.2
8,SNNT,≤ 0.2
9,RKQD,≤ 0.2
10,ESIY,≤ 0.2
11,PVLS,≤ 0.2
12,RSDP,≤ 0.2
13,ATLT,≤ 0.2
14,FTIS,≤ 0.2
15,FNRD,≤ 0.2
16,RHYH,0.223
17,REST,≤ 0.2
18,CSGY,≤ 0.2
19,PHLL,≤ 0.2
20,CSPR,≤ 0.2
21,WYEY,≤ 0.2
22,LRII,≤ 0.2
23,EFHL,≤ 0.2
24,YSRC,≤ 0.2
25,HSEG,≤ 0.2
26,HRPY,≤ 0.2

row,Variant,one-hybrid fitness for binding parS DNA
1,LPEV,≤ 0.2
2,DANS,≤ 0.2
3,SLMQ,≤ 0.2
4,NRKN,≤ 0.2
5,QMLD,≤ 0.2
6,SREV,≤ 0.2
7,MTKS,≤ 0.2
8,HDTP,≤ 0.2
9,VHNG,≤ 0.2
10,EHLY,≤ 0.2
11,DATW,≤ 0.2
12,DAIN,≤ 0.2
13,FWSS,≤ 0.2
14,YVKV,≤ 0.2
15,MMAV,≤ 0.2
16,DGGT,≤ 0.2
17,KKVN,≤ 0.2
18,NLEW,≤ 0.2
19,PLRA,≤ 0.2
20,DRFG,≤ 0.2
21,WQFR,≤ 0.2
22,QLVD,≤ 0.2
23,VPNC,≤ 0.2
24,LMGD,≤ 0.2
25,HRGM,≤ 0.2
26,QKKP,≤ 0.2

row,Variant,one-hybrid fitness for binding parS DNA
1,LLEV,≤ 0.2
2,MRKK,≤ 0.2
3,PKAM,≤ 0.2
4,PRDA,≤ 0.2
5,CSPT,≤ 0.2
6,SQQC,≤ 0.2
7,IVAD,≤ 0.2
8,NECC,≤ 0.2
9,QPKI,≤ 0.2
10,QSPD,≤ 0.2
11,PRVN,≤ 0.2
12,KCGR,≤ 0.2
13,TATT,≤ 0.2
14,TPTG,≤ 0.2
15,CYGG,≤ 0.2
16,IEWL,≤ 0.2
17,SKAH,≤ 0.2
18,SWQM,≤ 0.2
19,QQSM,≤ 0.2
20,PGCE,≤ 0.2
21,GWSN,≤ 0.2
22,SWPS,≤ 0.2
23,GTYR,≤ 0.2
24,RIIY,0.398
25,TKHW,≤ 0.2
26,PNSA,≤ 0.2

row,Variant,one-hybrid fitness for binding parS DNA
1,KRYF,≤ 0.2
2,VLPH,≤ 0.2
3,QIDE,≤ 0.2
4,YMSG,≤ 0.2
5,PVTK,≤ 0.2
6,YDQM,≤ 0.2
7,ENCR,≤ 0.2
8,VDLE,≤ 0.2
9,IRNF,≤ 0.2
10,ATGA,≤ 0.2
11,ILAM,≤ 0.2
12,QAQC,≤ 0.2
13,TSDS,≤ 0.2
14,PHKL,≤ 0.2
15,GCDR,≤ 0.2
16,KKQP,≤ 0.2
17,LTCA,≤ 0.2
18,ACKH,≤ 0.2
19,FTHC,≤ 0.2
20,ADDH,≤ 0.2
21,MRLP,≤ 0.2
22,NDCA,≤ 0.2
23,KMVT,≤ 0.2
24,TITP,≤ 0.2
25,LDPA,≤ 0.2
26,VWTL,≤ 0.2

row,Variant,one-hybrid fitness for binding parS DNA
1,EWKR,≤ 0.2
2,IGSW,≤ 0.2
3,VYER,≤ 0.2
4,HAAC,≤ 0.2
5,FQSI,≤ 0.2
6,QTIQ,≤ 0.2
7,CIFR,≤ 0.2
8,TEIG,≤ 0.2
9,QIRR,≤ 0.2
10,LFET,≤ 0.2
11,KPDI,≤ 0.2
12,KKHT,≤ 0.2
13,RYNF,0.214
14,QQNM,≤ 0.2
15,DTMQ,≤ 0.2
16,YHHA,≤ 0.2
17,MEPC,≤ 0.2
18,PQCT,≤ 0.2
19,DPMA,≤ 0.2
20,IQGS,≤ 0.2
21,TWLA,≤ 0.2
22,WMTC,≤ 0.2
23,SGCG,≤ 0.2
24,QDSN,≤ 0.2
25,TLCC,≤ 0.2
26,DEPS,≤ 0.2

row,Variant,one-hybrid fitness for binding parS DNA
1,GVRR,≤ 0.2
2,LSRI,≤ 0.2
3,AILT,≤ 0.2
4,THGI,≤ 0.2
5,CYWL,≤ 0.2
6,DLNV,≤ 0.2
7,KWWR,≤ 0.2
8,LEAC,≤ 0.2
9,LVPD,≤ 0.2
10,QAMF,≤ 0.2
11,HWYM,≤ 0.2
12,HVIC,≤ 0.2
13,VAWS,≤ 0.2
14,PSER,≤ 0.2
15,LPRF,≤ 0.2
16,ILSR,≤ 0.2
17,FGHC,≤ 0.2
18,KRGC,≤ 0.2
19,ALPV,≤ 0.2
20,IHLY,≤ 0.2
21,RTAY,0.485
22,MWNT,≤ 0.2
23,QGDR,≤ 0.2
